# Among all 310,000 compounds or so, about 14,000 (4.5%) showed an effect of 50% or more. Effects have a minus sign here. The list shows a part of the results. Where a SMILES comes first, the peptide text is derived from it. The star is where a group is joined. OBn = c1ccc(CO*)cc1
# Target: human ether-à-go-go-related gene (hERG) potassium channel (human, UniProt Q12809)
# Assay: primary screen, population patch clamp on CHO cells stably expressing hERG
# 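Further: peak tail current of the secondary pulse compared with the same well before compound.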
# Chain of human ether-à-go-go-related gene (hERG) potassium channel (Q12809 whole entry, looked up): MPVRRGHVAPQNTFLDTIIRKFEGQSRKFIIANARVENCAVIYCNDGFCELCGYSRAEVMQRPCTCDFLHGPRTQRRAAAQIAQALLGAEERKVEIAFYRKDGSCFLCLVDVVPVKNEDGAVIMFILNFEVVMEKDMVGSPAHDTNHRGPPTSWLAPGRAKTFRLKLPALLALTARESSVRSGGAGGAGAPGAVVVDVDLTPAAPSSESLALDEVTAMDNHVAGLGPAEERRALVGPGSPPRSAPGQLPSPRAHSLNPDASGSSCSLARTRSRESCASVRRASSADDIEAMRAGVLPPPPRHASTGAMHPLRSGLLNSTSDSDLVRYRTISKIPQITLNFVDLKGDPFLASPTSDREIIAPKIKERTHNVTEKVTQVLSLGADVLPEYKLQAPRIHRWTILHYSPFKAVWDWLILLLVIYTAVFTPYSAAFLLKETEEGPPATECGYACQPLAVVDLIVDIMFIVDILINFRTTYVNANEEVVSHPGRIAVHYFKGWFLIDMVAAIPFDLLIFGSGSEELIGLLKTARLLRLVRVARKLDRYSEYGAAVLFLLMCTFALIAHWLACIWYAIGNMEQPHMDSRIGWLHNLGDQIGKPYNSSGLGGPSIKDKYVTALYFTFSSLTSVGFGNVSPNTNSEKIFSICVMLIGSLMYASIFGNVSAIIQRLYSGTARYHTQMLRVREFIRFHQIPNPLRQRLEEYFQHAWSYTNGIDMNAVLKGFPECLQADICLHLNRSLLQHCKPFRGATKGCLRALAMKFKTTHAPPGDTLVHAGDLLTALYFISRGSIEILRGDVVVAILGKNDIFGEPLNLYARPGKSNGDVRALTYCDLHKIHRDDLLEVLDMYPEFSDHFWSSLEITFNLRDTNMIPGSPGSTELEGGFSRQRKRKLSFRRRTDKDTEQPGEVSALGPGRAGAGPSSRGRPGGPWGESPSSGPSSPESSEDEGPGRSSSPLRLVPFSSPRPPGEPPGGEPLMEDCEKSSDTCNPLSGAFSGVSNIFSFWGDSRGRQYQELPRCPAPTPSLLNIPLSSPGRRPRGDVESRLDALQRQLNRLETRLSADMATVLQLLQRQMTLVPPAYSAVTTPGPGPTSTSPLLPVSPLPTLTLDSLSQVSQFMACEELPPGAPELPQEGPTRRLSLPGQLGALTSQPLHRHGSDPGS
row,SMILES,"hERG current change (%, negative = inhibition) at 10uM [%]"
1,COc1ccc(C(=O)NC(C(=O)NCC(=O)Nc2c(C)cccc2C)C(C)C)cc1 (stereo not shown),10.5
2,Cc1sc(NC(=O)Cc2ccc3c(c2)OCO3)nc1-c1ccc2c(c1)CCN2C(=O)c1cccc(F)c1,3.36
3,COc1ccccc1CN1CCC(n2nccc2NC(=O)CCc2ccccc2)CC1,-23.9
4,Cc1ccc(-c2c[n+]3c(n2-c2ccccc2)CCC3)cc1.[Br-],-48.9
5,CC1CC(NC(=O)Cc2ccc(Br)cc2)CC(C)(C)C1 (stereo not shown),4.54
6,CCOc1ccc(N/C=C/C(=O)c2ccc(OC)c(OC)c2)cc1,14.3
7,Cc1c(C(=O)NC(C)CCc2ccccc2)cccc1[N+](=O)[O-] (stereo not shown),-18.2
8,O=C(O)c1ccc(CSCc2ccccc2F)o1,-1.86
9,CCOC(=O)C(NC(=O)c1ccccc1)(N1CCCC1=O)C(F)(F)F (stereo not shown),8.16
10,CCCCC(=O)NC(=S)Nc1ccc(Cl)c(C(=O)O)c1,33.8
11,Cn1cnnc1Sc1cc(N2CCN(S(=O)(=O)c3ccc(Cl)c(Cl)c3)CC2)ccc1[N+](=O)[O-],-10.6
12,Cc1cc(=O)oc2ccc(OCc3ccccc3)cc12,5.11
13,Cc1[nH]ccc(=O)c1OCc1c(F)cccc1Cl,12.1
14,CC(NC(=O)c1ccc(F)cc1F)C1CC2CCC1C2 (stereo not shown),1.45
15,COC(=O)c1cc(=O)nc2sc3cc(OC)ccc3n12,5.26
16,O=C(N/N=C/c1cccs1)c1c[nH]c2ccccc12,-0.817
17,CN(c1ccccc1)S(=O)(=O)c1cc(C(=O)Nc2nc3ccccc3[nH]2)ccc1Cl,1.28
18,COc1ccccc1NCc1cc(=O)oc2c(C)c(O)ccc12,13.3
19,CC(CNC(=O)CN1C(=O)NC2(CCOc3ccccc32)C1=O)c1ccccc1 (stereo not shown),-8.13
20,COc1ccc(Cn2ccnc2CO)cc1[N+](=O)[O-].Cl,-3.16
21,Cc1cccc(N(CC(=O)NCCc2ccccc2)C(=O)c2csnn2)c1,-5.88
22,CCc1c(C2(O)CCCCC2)[nH]c2cnccc12,-5.93
23,Cc1cc(C)c2c3c(sc2n1)C(=O)N(C)CC(=O)N3,-2.3
24,Cc1cccc(Nc2nc(-c3ccccc3)c(C(=O)Nc3cccnc3)s2)c1,2
25,COC(=O)[C@H](Cc1ccccc1)NC(=O)[C@@H](N)CC(=O)OCc1ccccc1.[Cl-] (H-Asp(OBn)-Phe-OMe),18.6
